According to the supplement of paper PMC11348887:
Structures can show the parent of a compound that is named as a salt. The list shows a part of the results. No stated cut-off is given here; in the data, active = -2 or less and inactive = the rest. Repeats are few or missing, and single values can be far off.

tested on: hPSC-derived cortical neurons (WA09); assay: nuclei number (viability) z-score; higher = more surviving cells; settings: 5 µM; treatment: days 7-14 after plating, readout day 21
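Further: nuclei counted from DAPI counterstain by automated high-content image analysis, four fields per well at ×20 in 384-well plates, with sequential b-score then z-score normalization.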

Compound | nuclei number (z-score)
CC(C)(O)[C@H]1CC[C@@](C)([C@H]2[C@@H](O)C[C@@]3(C)[C@@H]4C[C@H](O[C@@H]5O[C@H](CO)[C@@H](O)[C@H](O)[C@H]5O)[C@H]5C(C)(C)[C@@H](O[C@@H]6OC[C@@H](O)[C@H](O)[C@H]6O)CC[C@@]56C[C@@]46CC[C@]23C)O1 [Astragaloside A] | inactive: 0.0867
C=C1CC[C@H](O)C/C1=C/C=C1\CCC[C@]2(C)[C@@H]([C@H](C)CCCC(C)C)CC[C@@H]12 [Vitamin D3] | inactive: 2.1
CCCCCN(C)CCC(O)(P(=O)(O)O)P(=O)(O)O [Ibandronate sodium] | inactive: -0.167
O=C(O)C1=C[C@@H](O)[C@@H](O)[C@H](O)C1 [Shikimic Acid] | inactive: -0.741
C1N2CN3CN1CN(C2)C3 [Methenamine] | inactive: 0.496
C=C(C)[C@@H]1CC[C@]2(C(=O)O)CC[C@]3(C)[C@H](CC[C@@H]4[C@@]5(C)CC[C@H](O)C(C)(C)[C@@H]5CC[C@]43C)[C@@H]12 [Betulinic acid] | inactive: 0.0241
CC[C@]12C=CCN3CC[C@@]4(c5cc([C@@]6(C(=O)OC)C[C@@H]7C[C@@H](C(C)(F)F)CN(Cc8c6[nH]c6ccccc86)C7)c(OC)cc5N(C)[C@H]4[C@@](O)(C(=O)OC)[C@@H]1OC(C)=O)[C@@H]32 [Vinflunine Tartrate] | active: -6.72
c1ccc2c(c1)CCCC2C1=NCCN1 (centres undefined) [Tetrahydrozoline HCl] | inactive: -0.629
CC(C)NC(=O)COc1cccc(-c2nc(Nc3ccc4[nH]ncc4c3)c3ccccc3n2)c1 | active: -4.78
CNc1ncnc2c1ncn2[C@@H]1O[C@H](CO)[C@@H](O)[C@H]1O [N6-methyladenosine (m6A)] | inactive: 0.254
CC(C)OC(=O)C(C(=O)OC(C)C)=C1SC=CS1 [Malotilate] | inactive: 0.436
CS(=O)(=O)c1ccc([C@@H](O)[C@@H](CF)NC(=O)C(Cl)Cl)cc1 [Florfenicol] | inactive: -0.373
CCN(CC)CCCC(C)Nc1ccnc2cc(Cl)ccc12 (centres undefined) [Chloroquine Phosphate] | inactive: 0.912
O=C(COc1cccc2c(=O)[nH]ccc12)c1ccccc1 | active: -2.74
CCNC(=O)[C@H]1O[C@@H](n2cnc3c(N)nc(NCCc4ccc(CCC(=O)O)cc4)nc32)[C@H](O)[C@@H]1O | inactive: -0.587
CCCCCOc1ccc(-c2ccc(-c3ccc(C(=O)N[C@H]4C[C@@H](O)[C@@H](O)NC(=O)[C@@H]5[C@@H](O)[C@@H](C)CN5C(=O)[C@H]([C@@H](C)O)NC(=O)[C@H]([C@H](O)[C@@H](O)c5ccc(O)cc5)NC(=O)[C@@H]5C[C@@H](O)CN5C(=O)[C@H]([C@@H](C)O)NC4=O)cc3)cc2)cc1 | inactive: 0.345
CC(C)c1nc(N(C)S(C)(=O)=O)nc(-c2ccc(F)cc2)c1/C=C/[C@@H](O)C[C@@H](O)CC(=O)O [Rosuvastatin Calcium] | active: -4.66
Nc1ccc(S(=O)(=O)NC(=O)c2ccccc2)cc1 [Sulfabenzamide] | inactive: -0.385
O=C1NC(=O)/C(=C/c2ccc3nccc(-c4ccncc4)c3c2)S1 | inactive: -0.995
CCCc1ncc(C[n+]2ccccc2C)c(N)n1 [Amprolium HCl] | inactive: -0.0386
OC[C@H]1OC(O)[C@H](O)[C@@H](O)[C@@H]1O (some centres undefined) [Dextrose] | inactive: 1.51
O=C1NC(=O)C(c2ccccc2[N+](=O)[O-])=C1Nc1ccc(O)c(Cl)c1 | inactive: 0.154

Compound | nuclei number (z-score)
COCCOc1nc(-c2ccc(Cl)c(Cl)c2)n(-c2ccc(NC(=O)CCl)cc2)n1 [MI-2 (MALT1 inhibitor)] | active: -2.77
CC(C(=O)O)c1cccc(Oc2ccccc2)c1 (centres undefined) [Fenoprofen calcium hydrate] | inactive: -0.0231
CC(C(=O)O)c1cccc(Oc2ccccc2)c1 (centres undefined) [Fenoprofen Calcium] | inactive: 1.13
Oc1ccc(C2CNCCc3c2cc(O)c(O)c3Cl)cc1 (centres undefined) [Fenoldopam mesylate] | inactive: 1.72
C[C@H](NCc1ccc(OCc2cccc(F)c2)cc1)C(N)=O [Safinamide Mesylate] | inactive: 0.588
CC(=O)OCC(=O)NCCCOc1cccc(CN2CCCCC2)c1 [Roxatidine Acetate HCl] | inactive: -0.593
CCn1cc(C(=O)O)c(=O)c2cc(F)c(N3CCNCC3)nc21 [Enoxacin] | inactive: 2.54
OC[C@@H](O)[C@@H](O)[C@H](O)[C@H](O)CO [D-Mannitol] | inactive: 0.427
CC[C@H]1OC(=O)[C@H](C)[C@@H](O[C@H]2C[C@@](C)(OC)[C@@H](O)[C@H](C)O2)[C@H](C)[C@@H](O[C@@H]2O[C@H](C)C[C@H](N(C)C)[C@H]2O)[C@](C)(O)C[C@@H](C)C(=O)[C@H](C)[C@@H](O)[C@]1(C)O [Erythromycin] | inactive: 4.15
CC(C(=O)O)c1ccc(CC2CCCC2=O)cc1 (centres undefined) [Loxoprofen] | inactive: 0.383
O=C(O)CCc1nc(-c2ccccc2)c(-c2ccccc2)o1 [Oxaprozin] | inactive: -0.418
O=C(O)CCCc1c[nH]c2ccccc12 [3-Indolebutyric acid (IBA)] | inactive: -0.458
O=C(c1cc(Cc2n[nH]c(=O)c3ccccc23)ccc1F)N1CCN(C(=O)C2CC2)CC1 | inactive: -0.487
O=C1c2ccccc2C(=O)C1c1ccccc1 [Phenindione] | inactive: -0.212
Clc1ccc2c(c1)C(N1CCNCC1)=Nc1ccccc1O2 [Amoxapine] | inactive: 4.32
c1ccc(CC2=NCCN2)cc1 [Tolazoline HCl] | inactive: 0.111
OCCN1CCN(CCCN2c3ccccc3Sc3ccc(C(F)(F)F)cc32)CC1 [Fluphenazine dihydrochloride] | active: -3.66
CC(C)(Oc1ccc(CCNC(=O)c2ccc(Cl)cc2)cc1)C(=O)O [Bezafibrate] | inactive: 4.98
CCc1ccc(CCOc2ccc(CC3SC(=O)NC3=O)cc2)nc1 (centres undefined) [Pioglitazone HCl] | inactive: 4.18
CCc1ccc(CCOc2ccc(CC3SC(=O)NC3=O)cc2)nc1 (centres undefined) [Pioglitazone] | inactive: 0.0566
Cc1ccc(N(CC2=NCCN2)c2cccc(O)c2)cc1 [Phentolamine Mesylate] | inactive: 0.0606
CC(C)Nc1cc(-c2c[nH]c(C(=O)N[C@H](CO)c3cccc(Cl)c3)c2)c(Cl)cn1 | inactive: 0.0805

Compound | nuclei number (z-score)
CNC[C@@H](O)c1ccc(O)c(O)c1 [L-Adrenaline] | inactive: 3.23
COc1cc(F)c(C(C)C)cc1-c1ccc(C(F)(F)F)cc1CN1C(=O)O[C@H](c2cc(C(F)(F)F)cc(C(F)(F)F)c2)[C@@H]1C [Anacetrapib (MK-0859)] | inactive: -0.845
CO[C@H]1/C=C/O[C@@]2(C)Oc3c(C)c(O)c4c(O)c(c(/C=N/N5CCN(C)CC5)c(O)c4c3C2=O)NC(=O)/C(C)=C\C=C\[C@H](C)[C@H](O)[C@@H](C)[C@@H](O)[C@@H](C)[C@H](OC(C)=O)[C@@H]1C [Rifampin] | inactive: -1.73
Cc1c(Cl)cccc1Nc1ccccc1C(=O)O [Tolfenamic Acid] | inactive: -0.103
CCCSc1ccc2[nH]c(NC(=O)OC)nc2c1 [Albendazole] | inactive: 0.312
COC(=O)[C@H](c1ccccc1Cl)N1CCc2sccc2C1 [Clopidogrel] | inactive: -0.65
COCCCC/C(=N\OCCN)c1ccc(C(F)(F)F)cc1 [Fluvoxamine maleate] | inactive: -0.167
CN(C)[C@@H]1C(O)=C(C(N)=O)C(=O)[C@@]2(O)C(O)=C3C(=O)c4c(O)cccc4[C@@](C)(O)[C@H]3C[C@@H]12 [Tetracycline HCl] | inactive: -1.08
O=C(Nc1cc(C(F)(F)F)cc(C(F)(F)F)c1)c1cc(Cl)ccc1O | inactive: 0.0251
NC(=O)N1CCC(CC(=O)N2CCC([C@H]3c4ncc(Br)cc4CCc4cc(Cl)cc(Br)c43)CC2)CC1 [Lonafarnib] | inactive: -0.716
C[C@H](N[C@@H](CCc1ccccc1)C(=O)O)C(=O)N1CCC[C@H]1C(=O)O [Enalaprilat Dihydrate] | inactive: -0.603
CS(=O)(=O)c1ccc(C(=O)Nc2ccc(Cl)c(-c3ccccn3)c2)c(Cl)c1 [Vismodegib (GDC-0449)] | inactive: 0.187
Cc1ccc2c(c1)C(=O)C1(O)CCN(c3ccccc3)C1=N2 (single isomer, unassigned; (-)) [(-)-Blebbistatin] | inactive: 6.44
CC(C)C[C@H](NC(=O)[C@H](Cc1ccccc1)NC(=O)c1cnccn1)B(O)O [Bortezomib (PS-341)] | active: -2.65
COc1ccc(CC(C)NCC(O)c2ccc(O)c(NC=O)c2)cc1 (centres undefined) [Formoterol Hemifumarate] | inactive: -1.49
Nc1ccc2ncnc(NCCc3ccc(Oc4ccccc4)cc3)c2c1 | inactive: 0.102
Oc1c(Br)cc(Br)c2cccnc12 [Broxyquinoline] | inactive: 1.25
COc1ccc(-c2coc3cc(O)ccc3c2=O)cc1 [Formononetin] | inactive: 0.483
CN1CCN(S(=O)(=O)c2ccc(-c3cnc(N)c(C(=O)Nc4cccnc4)n3)cc2)CC1 | inactive: -0.213
CNc1nc(-c2ccc3c(N)n[nH]c3c2)cc(N2C[C@@H](C(=O)NC3CCCCC3)CC[C@H]2C)n1 | inactive: -0.335
